In PubChem BioAssay AID2675 (National Center for Advancing Translational Sciences (NCATS), 2010):
About 100 (0.036%) of roughly 280,000 compounds were called active. The shares of active, inactive and inconclusive entries below differ from those in the screen. The call rests on the fitted dose curve; in most records, active means well fitted inhibition curve with a large enough effect in the signal ratio, with a control signal flat (not every such curve was filed as active); inconclusive means small, poorly fitted or top-dose-only effect, or effect the other way, or a change in a side signal; inactive means no such curve, though single readings can be large or run the other way; the % refers to the signal ratio. Where the call is inconclusive, the potency comes from a doubtful curve fit. “Side channel” marks fits to a control or component signal instead of the main read-out.

What follows are molecules tested against Muscleblind-like protein 1 (Homo sapiens) (UniProt Q9NR56) (assay: qHTS Assay for Inhibitors of MBNL1-poly(CUG) RNA binding). Conditions: TR-FRET MBNL1-His/biotin-(CUG)12 binding, 665/545 ratio; activity change, negative = inhibition: at 57.5 µM (top of the series).
Sequence of UniProt Q9NR56 (Q9NR56 whole entry, looked up): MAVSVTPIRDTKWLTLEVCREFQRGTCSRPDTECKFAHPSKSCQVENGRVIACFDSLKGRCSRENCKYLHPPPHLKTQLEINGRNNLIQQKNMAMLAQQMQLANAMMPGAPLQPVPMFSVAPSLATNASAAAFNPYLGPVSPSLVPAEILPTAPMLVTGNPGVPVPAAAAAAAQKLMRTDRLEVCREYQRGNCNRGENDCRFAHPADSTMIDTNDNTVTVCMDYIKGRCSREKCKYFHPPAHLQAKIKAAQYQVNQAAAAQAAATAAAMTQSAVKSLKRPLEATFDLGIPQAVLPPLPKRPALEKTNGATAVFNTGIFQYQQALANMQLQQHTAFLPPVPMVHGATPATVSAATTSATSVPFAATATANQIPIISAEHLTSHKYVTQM
Summary of the method: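 Ratiometric TR-FRET (665 over 545 nm, excitation 340 nm) tracks disruption of MBNL1-His/biotin-(CUG)12 complex after 60 min at room temperature, with compounds at 92 nM to 58 uM final.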
On the % scale 0 is the no-effect control and ±100 the full control effect; potency means the concentration at half of the fitted maximal effect; tags describe the fitted curve by direction and shape or compound fluorescence and quenching.

Structure (SMILES) | Potency | activity change, negative = inhibition
COc1ccc(-c2[nH]c(-c3ccccc3)nc2SCC(=O)Nc2nccs2)cc1 | inconclusive: 1.26 µM [inhibitor, full curve, poor fit] | –
Cc1ncc(CO)c2cc(C(=O)Nc3cccc(F)c3)c(=Nc3cccc(C(N)=O)c3)oc12 | inconclusive: 2.82 µM [quencher, side channel, full curve] | –
COc1cccc(Nc2nc(N)c([N+](=O)[O-])c(NCc3ccccc3)n2)c1 | – | inactive: 7.69%
Cc1ccc(N/C=C/C(=O)c2cccs2)cc1 | inconclusive: 14.1 µM [quencher, side channel, partial curve] | –
CCOC(=O)c1c(N)nn(C(C)=O)c1-c1ccccc1 | – | inactive: 2.81%
CC(C)CNC(=O)c1cccc(Cn2cc(Cl)cn2)c1 | – | inactive: -2.28%
CCn1cc(CNC(=O)/C=C/c2ccc([N+](=O)[O-])cc2)c(C)n1 | inconclusive: 11.2 µM [quencher, side channel, partial curve] | –
Cc1ccc(C)c(-n2c(=O)c(C#N)cc3c(=O)n4ccccc4nc32)c1 | inconclusive: 2.51 µM [quencher, side channel, full curve] | –
COc1ccc(C2=NN(C(N)=S)C(c3ccccc3)C2)cc1 (stereo not drawn) | inconclusive: 25.1 µM [quencher, side channel, partial curve] | –
Cc1cc(C)nc(NN2C(=O)C=CC2=O)n1 | – | inactive: 8.82%
C(=C\c1ccc2ccccc2n1)/c1ccccc1 | inconclusive: 15.8 µM [quencher, side channel, partial curve] | –
COc1cccc(C2C3CN(C)CC=C3C(C#N)=C(N)C2(C#N)C#N)c1OC (stereo not drawn) | inconclusive: 14.1 µM [quencher, side channel, partial curve] | –
Cc1cc(C)n(-c2nc(NC(C)(C)C)nc(NC(C)(C)C)n2)n1 | – | inactive: -14.8%
COc1ccc(N2CCN(CCCNC(=O)Nc3ccccc3)CC2)cc1 | – | inactive: -7.93%
Cc1ccc(C(=O)NC(=S)NCC2CCCO2)cc1[N+](=O)[O-] (stereo not drawn) | inconclusive: 12.6 µM [quencher, side channel, partial curve] | –
Cn1c(=O)c2[nH]c(N3CCOCC3)nc2n(-c2ccccc2)c1=O | inconclusive: 8.91 µM [fluorescent, side channel, single point] | –
N#Cc1cn(CC(=O)N2CCc3ccccc3C2)c2ccccc12 | inconclusive: 79.4 µM [inhibitor, single point] | –
O=C(O)CCN1C(=O)c2ccc(NC(=O)c3cccs3)cc2C1=O | inconclusive: 11.2 µM [quencher, side channel, partial curve] | –
